Assay results reported in PubChem BioAssay AID485313 (National Center for Advancing Translational Sciences (NCATS), 2010).
Hit rate of the full screen: of about 320,000 compounds, about 7,600 (2.4%) were called active. This list was built around the results that the source calls inconclusive (neither active nor inactive); the mix of calls is not that of the screen. The call rests on the fitted dose curve; in most records, active means well fitted activation curve with a large enough effect; inconclusive means small, poorly fitted or top-dose-only effect; inactive means no such curve, though single readings can be large or run the other way. Potencies beside an inconclusive call are fits to weak or partial responses and may not hold up.

Assay: qHTS Assay for NPC1 Promoter Activators; further: nearly all actives have a fitted effect of over 60% in size;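 on activation: reporter is driven by a mutant NPC1 promoter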
Details: Huh7 NPC1 promoter luciferase reporter, 24 h; series mostly up to 9.22 µM
Method in brief: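 Readout is luciferase luminescence, reflecting NPC1 promoter activation in stably transfected Huh7 cells after 24 h compound exposure at 37 °C in reduced-serum medium with 10% FBS.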
Potency means the concentration at half of the fitted maximal effect; tags describe the fitted curve by direction and shape.

Potency, active:
O=C(NC(=S)Nc1ccc(N2CCCCC2)cc1)c1ccco1 1 µM
CC(C)CCNC(=O)C(=O)Nc1ccccc1 3.55 µM

Potency, inconclusive:
Brc1ccccc1/C=N/Nc1nc2ccccc2o1 5.62 µM [activator, single point]
CC1(C)Cc2c(sc(NC(=O)c3ccccc3)c2C(=O)O)CO1 3.55 µM [activator, single point]
CC1=NN(C(N)=S)C(=O)C1N=Nc1cccc(Cl)c1C (stereo unspecified) 3.55 µM [activator, single point]
O=c1oc(CCO)cc2ccc(C#Cc3ccsc3)cc12 4.47 µM [activator, partial curve]
Nc1nc2ccccc2n1C(=O)c1ccccc1 0.398 µM [activator, full curve]
Cc1cccc(Nc2nc(N)nc(CSC(=S)N3CCOCC3)n2)c1 5.62 µM [activator, single point]
N#Cc1c(N2CCOCC2)nsc1-c1ccccc1 2.82 µM [activator, partial curve]
COC(CNC(=O)c1ccc2c3c(onc13)-c1ccccc1C2=O)OC 0.501 µM [activator, full curve]
CC(/C=N/NC(=O)c1ccc(Cn2cc([N+](=O)[O-])cn2)o1)=C\c1ccccc1 2 µM [activator, partial curve]
CN1CCN(C(=O)c2ccc(COc3ccc(C(C)(C)C)cc3)o2)CC1 2.51 µM [activator, partial curve]
Cc1cc(C)c2nc(NCc3ccccc3O)sc2c1 6.31 µM [activator, single point]
Cc1nn2c(-c3ccccc3)nnc2c2ccccc12 5.62 µM [activator, single point]
COc1ccc(N=CC2=C(O)c3ccccc3C2=O)c(OC)c1 1.12 µM [activator, single point]
Cc1c(O)ccc(C(=O)COc2ccc(F)cc2)c1O 3.98 µM [activator, single point]
Oc1ccc(N=Nc2ccccc2)cc1 6.31 µM [activator, single point]

Potency, inactive:
Cc1nn(C(C)C(=O)NCC2CCCO2)c(=O)c2c1sc1ccccc12 (stereo unspecified)
O=C(N/N=C/c1cccnc1)c1ccc2ccccc2c1O
Cc1cccc(N2CCN(C(=O)CCNS(=O)(=O)c3ccc4c(c3)CCC(=O)N4)CC2)c1C
COc1ccc2nc(NCCNC(=S)NCCCN3CCOCC3)c(C#N)cc2c1
